Test results as given in the DeepSol protein solubility set.

Assay: soluble on expression in E. coli; label from the status in PepcDB or PDB records

Row | Sequence | soluble on expression in E. coli
1 | MDCSTNISPKQGLDKAKYFSGKWYVTHFLDKDPQVTDQYCSSFTPRESDGTVKEALYHYNANKKTSFYNIGEGKLESSGLQYTAKYKTVDKKKAVLKEADEKNSYTLTVLEADDSSALVHICLREGSKDLGDLYTVLTHQKDAEPSAKVKSAVTQAGLQLSQFVGTKDLGCQYDDQFTSL | soluble
2 | VVGGTEAQRNSWPSQISLQYRSGSSWAHTCGGTLIRQNWVMTAAHCVDRELTFRVVVGEHNLNQNDGTEQYVGVQKIVVHPYWNTDDVAAGYDIALLRLAQSVTLNSYVQLGVLPRAGTILANNSPCYITGWGLTRTNGQLAQTLQQAYLPTVDYAICSSSSYWGSTVKNSMVCAGGDGVRSGCQGDSGGPLHCLVNGQYAVHGVTSFVSRLGCNVTRKPTVFTRVSAYISWINNVIASN | soluble
